Laboratory results: the supplement of paper PMC6135742
Counter-ions that a name gives are not always drawn. ± gives the standard deviation of the averaged measurements. Whole data set: some 2,600 compounds, median “total cell number (DAPI+ nuclei) relative to DMSO vehicle control” near -1.4, cut for the lowest 2% near -23. This is one part of the list.

tested on: jimpy (Plp1 jimpy) mouse iPSC-derived oligodendrocyte progenitor cells; assay: total cell number (DAPI+ nuclei) relative to DMSO vehicle control (SDs above negative control mean); higher = more surviving cells; details: 10 µM; 3 days

| SMILES | total cell number |
| --- | --- |
| CC(C)NCC(O)c1ccccc1Cl (stereo not drawn) [Clorprenaline HCl] | 2.41 |
| C[C@@H]1[C@H](O)[C@@H](C)/C=C/C=C/CC/C=C/C=C/C=C/C=C/[C@H](O[C@H]2O[C@@H](C)[C@H](O)[C@@H](N)[C@H]2O)C[C@@H]2O[C@](O)(C[C@@H](O)[C@H](O)CC[C@@H](O)C[C@@H](O)C[C@@H](O)CC(=O)O[C@H]1C)C[C@H](O)[C@H]2C(=O)O [Nystatin (Fungicidin)] | 4.49 |
| O=c1ccc2[nH]cc(C3=CCNCC3)c2[nH]1 | 0.673 |
| C=CCN1CC[C@]23CCCC[C@H]2[C@H]1Cc1ccc(O)cc13 [Levallorphan tartrate] | -2.07 |
| O=c1[nH]c2ccccc2n1C1CCN(CCCC(c2ccc(F)cc2)c2ccc(F)cc2)CC1 [Pimozide] | -10.3 |
| Cc1cc2c(C(C)C)c(O)c(O)c(C=O)c2c(O)c1-c1c(C)cc2c(C(C)C)c(O)c(O)c(C=O)c2c1O [Gossypol] | -5.94 ± 3.3 |
| CCCN1CC[C@@H]2c3cc(O)ccc3CC[C@@H]21 (racemic) [cis(+/-)-8-OH-PBZI hydrobromide] | 3.26 |
| O=c1[nH]c2ccc(Cl)cc2c(N[C@@H]2CN3CCC2CC3)c1-c1nc2ccccc2[nH]1 | -12 |
| NCCc1c[nH]c2ccc(C(N)=O)cc12 [5-Carboxamidotryptamine maleate] | -0.886 |
| O=S1(=O)N(CCN2CC=C(c3c[nH]c4cc(F)ccc34)CC2)c2cccc3c2N1CCC3 | 0.521 |
| CCN(CC)C(=O)c1ccc(C2=CC3(CCNCC3)Oc3cccc(O)c32)cc1 | 1.6 |
| NCCCNCCSP(=O)(O)O [Amifostine] | 0.361 |
| Clc1ccc(N2CCN(Cc3c[nH]c4ncccc34)CC2)cc1 [L-745,870 hydrochloride] | -5.68 |
| CN1[C@@H]2C[C@@H](OC(=O)[C@H](CO)c3ccccc3)C[C@H]1[C@H](O)C2 (racemic) [(+/-)-Anisodamine] | -1.15 |
| COc1ccc(OC)c(C(O)C(C)N)c1 (stereo not drawn) [Methoxamine hydrochloride] | -1.42 |
| Cc1sc2c(c1C)C(c1ccc(Cl)cc1)=N[C@@H](CC(=O)OC(C)(C)C)c1nnc(C)n1-2 | -12.5 |
| N#C/C(=C\c1ccc(O)c(O)c1)C(N)=S [Tyrphostin 47] | -1.34 |
| c1ccc2sc(C3(N4CCCCC4)CCCCC3)cc2c1 [BTCP hydrochloride] | -2.99 |
| CCCC[N+]1(C)[C@@H]2C[C@@H](OC(=O)[C@H](CO)c3ccccc3)C[C@H]1[C@@H]1O[C@@H]12 (single isomer, unassigned; (-)) [(-)-Scopolamine,n-Butyl-, bromide] | -0.98 |
| CCCC[N+]1(C)[C@@H]2C[C@@H](OC(=O)[C@H](CO)c3ccccc3)C[C@H]1[C@@H]1O[C@@H]12 (single isomer, unassigned; (-)) [Butylscopolamine Bromide] | -1.54 |
| COc1cc(OC)c(OC)cc1C=O [Asaraldehyde] | -1.75 |
| OC(c1ccccc1)(c1ccccc1)C1CCNCC1 [Azacyclonol] | -0.583 |
| NC(CP(=O)(O)O)C(=O)O (racemic) [(±)-2-Amino-3-phosphonopropionic acid] | -0.53 |
| NC1CCc2cc(O)c(O)cc2C1 (stereo not drawn) [6,7-ADTN hydrobromide] | -2.01 |

| SMILES | total cell number |
| --- | --- |
| Cc1ccc2c(c1)C1(CCN(CCc3nc(-c4ccccc4)oc3C)CC1)OC(=O)N2 | -4.34 |
| Cc1ccccc1-n1c(Cn2ncc3c(N)ncnc32)nc2cccc(C)c2c1=O | -1.13 |
| C[C@@]12C(=O)OC(=O)[C@]1(C)[C@H]1CC[C@@H]2O1 [Cantharidin] | -10 |
| CCC1(C)CC(=O)NC(=O)C1 [Bemegride] | 0.679 |
| C[C@]12C/C(=C/O)C(=O)C[C@@H]1CC[C@@H]1[C@@H]2CC[C@@]2(C)[C@H]1CC[C@]2(C)O [Oxymetholone] | -2.34 |
| C[C@H]1CNCCc2ccc(Cl)cc21 [Lorcaserin HCl] | 2.19 |
| CC1=NN=C(c2ccc(N)cc2)c2cc3c(cc2C1)OCO3 | -0.785 |
| COc1ccccc1N1CCNCC1 [1-(2-Methoxyphenyl)piperazine hydrochloride] | -1.44 |
| CC(=O)c1c(O)c(C)c(O)c(Cc2c(O)c3c(c(C(=O)/C=C/c4ccccc4)c2O)OC(C)(C)C=C3)c1O [Rottlerin] | -1.04 |
| CC(=O)[C@H]1CC[C@H]2[C@@H]3CC[C@H]4C[C@H](O)CC[C@]4(C)[C@H]3C(=O)C[C@]12C [5alpha-Pregnan-3alpha-ol-11,20-dione] | -0.533 |
| c1ccc(C[N+]23CN4CN(CN(C4)C2)C3)cc1 [Roslin 2] | -2.78 |
| C=C1C[C@@H]2[C@H](CC[C@]3(C)C(=O)CC[C@@H]23)[C@@]2(C)C=CC(=O)C=C12 [Exemestane] | -5.89 |
| COc1ccc2c(c1OC)C(=O)OC2C1c2cc3c(cc2CCN1C)OCO3 (single isomer, unassigned; (+)) [(+)-Hydrastine] | -1.27 |
| O=C1C=CC(=O)C=C1 [p-Benzoquinone] | -5.64 |
| c1ccc2c(c1)sc1ccccc12 [Dibenzothiophene] | 0.55 |
| O=P1(N(CCCl)CCCl)NCCCO1 (stereo not drawn) [Cyclophosphamide monohydrate] | -1.66 |
| CN1C(=O)CCS(=O)(=O)C1c1ccc(Cl)cc1 (stereo not drawn) [Chlormezanone] | -1.28 ± 1.1 |
| CC(=O)OCC1=C(C(=O)[O-])N2C(=O)[C@@H](NC(=O)CCC[C@@H](N)C(=O)[O-])[C@H]2SC1.[Zn+2] [Cephalosporin C zinc salt] | -1.93 |
| O=C(O)[C@@H]1CCN1 [L-azetidine-2-carboxylic acid] | -2.05 |
| O=C(O)Cc1cnc[nH]1 [Imidazole-4-acetic acid hydrochloride] | -2.24 |
| CCCCCCCCCCCCCCCC[n+]1ccccc1 [Cetylpyridinium Chloride] | -15.7 |
| CCCN1CCO[C@@H]2c3cc(O)ccc3OC[C@H]21 | -1.34 |
| Cc1ccc(-n2nccn2)c(C(=O)N2CCN(c3nc4cc(Cl)ccc4o3)CC[C@H]2C)c1 [Suvorexant (MK-4305)] | 0.1 |
| C[C@@H]1O[C@@H](O[C@H]2C[C@@H](O)[C@]3(CO)[C@H]4[C@H](O)C[C@]5(C)[C@@H]([C@@H]6COC(=O)C6)CC[C@]5(O)[C@@H]4CC[C@]3(O)C2)[C@H](O)[C@H](O)[C@H]1O [Dihydroouabain] | 0.444 |
